# Laboratory results from PubChem BioAssay (Tox21).
# Activity calls are given as the source filed them. Unless noted, the call rests on the fitted dose curve; in most records, active means well fitted curve in the direction sought with a large enough effect in the repeat runs; inconclusive means weak or mixed curves; inactive means no such curve, though single readings can be large; an effect the other way counts as inactive or inconclusive.
# How the values were obtained:
# [1] = qHTS assay for small molecule agonists of the p53 signaling pathway (AID 651631; calls by dose curve; further: nearly all actives have a fitted effect of over 15% in size; further: potency means the concentration at half of the fitted maximal effect); conditions: HCT-116 p53RE-bla reporter, beta-lactamase FRET ratio, 16 h; activation: at 73.3 µM (top of the series) unless noted
# In short: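 HCT-116 cells carrying a beta-lactamase reporter under p53 response elements were dosed with compound for 16 h at 37 °C. LiveBLAzer B/G FRET substrate was then added for 2 h at room temperature, and fluorescence intensity was read to detect pathway agonism.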
# [2] = qHTS assay for small molecule disruptors of the mitochondrial membrane potential (AID 720635); conditions: HepG2 mitochondrial membrane potential, Mito-MPS dye ratio; ratio activity, negative = MMP loss: at 83.2 µM (top of the series) unless noted; further: potency means the concentration at half of the fitted maximal effect
# In short: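 Mitochondrial membrane potential tracked with Mito-MPS dye, red aggregates (ex 540/em 590 nm) against green monomers (ex 490/em 535 nm). Compound treatment 1 hr at 37C, dye 30 min in HepG2.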
# [3] = target: Glucocorticoid receptor (Homo sapiens) (UniProt P04150); assay: qHTS assay to identify small molecule antagonists of the glucocorticoid receptor (GR) signaling pathway (AID 720692; active means well fitted inhibition curve with a large enough effect in the signal ratio in the repeat runs, not every such curve was filed as active; inconclusive means weak or mixed curves, or effect the other way; inactive means no such curve, though single readings can be large or run the other way; the % refers to the signal ratio; further: potency means the concentration at half of the fitted maximal effect; on activity change, negative = inhibition: on the % scale 0 is the no-effect control and ±100 the full control effect); conditions: GR-bla HeLa, beta-lactamase FRET ratio, dexamethasone-stimulated, 18 h; activity change, negative = inhibition: at 58.5 µM (top of the series) unless noted
# Chain of UniProt P04150 (P04150 whole entry, looked up): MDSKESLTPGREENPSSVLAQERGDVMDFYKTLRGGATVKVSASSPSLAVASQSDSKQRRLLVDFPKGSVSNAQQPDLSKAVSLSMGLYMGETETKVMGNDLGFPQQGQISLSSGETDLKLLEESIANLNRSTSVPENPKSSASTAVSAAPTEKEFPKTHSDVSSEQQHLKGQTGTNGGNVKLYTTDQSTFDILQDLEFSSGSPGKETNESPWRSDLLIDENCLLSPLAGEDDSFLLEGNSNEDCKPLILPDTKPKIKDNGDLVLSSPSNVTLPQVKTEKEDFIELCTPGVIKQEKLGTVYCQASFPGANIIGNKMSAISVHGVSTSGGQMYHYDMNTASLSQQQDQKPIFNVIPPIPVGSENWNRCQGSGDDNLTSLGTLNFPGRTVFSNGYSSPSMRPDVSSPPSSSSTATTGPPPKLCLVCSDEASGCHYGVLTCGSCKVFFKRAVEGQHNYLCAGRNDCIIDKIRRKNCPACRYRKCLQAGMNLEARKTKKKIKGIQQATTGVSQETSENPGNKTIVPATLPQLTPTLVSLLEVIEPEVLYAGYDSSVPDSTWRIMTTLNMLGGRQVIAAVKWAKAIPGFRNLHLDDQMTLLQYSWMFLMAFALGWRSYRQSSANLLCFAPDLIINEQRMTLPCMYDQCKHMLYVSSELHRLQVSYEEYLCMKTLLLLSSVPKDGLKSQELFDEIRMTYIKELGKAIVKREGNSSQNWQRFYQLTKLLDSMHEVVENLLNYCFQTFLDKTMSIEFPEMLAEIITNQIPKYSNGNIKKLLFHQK
# In short: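 Inhibition of dexamethasone-driven (5 nM final) beta-lactamase expression was measured in GRE-reporter HeLa cells over 18 h at 37C. Fluorescence was read after 2 h with the B/G FRET substrate at room temperature.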
# [4] = qHTS assay to identify small molecule antagonists of the glucocorticoid receptor (GR) signaling pathway - cell viability counter screen (AID 720693); conditions: GR-bla HeLa viability, CellTiter-Glo luminescence, 18 h, with 5 nM dexamethasone present; viability change, negative = cytotoxic: at 58.5 µM (top of the series) unless noted; further: potency means the concentration at half of the fitted maximal effect; nearly all actives have a fitted effect of over 55% in size
# [5] = qHTS assay for identifying genotoxic compounds that show differential cytotoxicity against isogenic chicken DT40 cell lines with known DNA damage response pathways - Rad54/Ku70 mutant cell line (AID 743015); conditions: DT40 Rad54/Ku70 mutant viability, CellTiter-Glo, 40 h; activity change, negative = cytotoxicity: at 66.8 µM (top of the series); further: nearly all actives have a fitted effect of over 60% in size; further: potency means the concentration at half of the fitted maximal effect
# [6] = target: Androgen receptor (Homo sapiens) (UniProt P10275); assay: qHTS assay to identify small molecule antagonists of the androgen receptor (AR) signaling pathway (AID 743035; active means well fitted inhibition curve with a large enough effect in the signal ratio in the repeat runs, not every such curve was filed as active; inconclusive means weak or mixed curves, or effect the other way; inactive means no such curve, though single readings can be large or run the other way; the % refers to the signal ratio; further: potency means the concentration at half of the fitted maximal effect); conditions: HEK293 AR-UAS-bla, R1881-stimulated, beta-lactamase FRET, 16 h; activity change, negative = inhibition: at 58.5 µM (top of the series) unless noted
# Chain of UniProt P10275 (P10275 whole entry, looked up): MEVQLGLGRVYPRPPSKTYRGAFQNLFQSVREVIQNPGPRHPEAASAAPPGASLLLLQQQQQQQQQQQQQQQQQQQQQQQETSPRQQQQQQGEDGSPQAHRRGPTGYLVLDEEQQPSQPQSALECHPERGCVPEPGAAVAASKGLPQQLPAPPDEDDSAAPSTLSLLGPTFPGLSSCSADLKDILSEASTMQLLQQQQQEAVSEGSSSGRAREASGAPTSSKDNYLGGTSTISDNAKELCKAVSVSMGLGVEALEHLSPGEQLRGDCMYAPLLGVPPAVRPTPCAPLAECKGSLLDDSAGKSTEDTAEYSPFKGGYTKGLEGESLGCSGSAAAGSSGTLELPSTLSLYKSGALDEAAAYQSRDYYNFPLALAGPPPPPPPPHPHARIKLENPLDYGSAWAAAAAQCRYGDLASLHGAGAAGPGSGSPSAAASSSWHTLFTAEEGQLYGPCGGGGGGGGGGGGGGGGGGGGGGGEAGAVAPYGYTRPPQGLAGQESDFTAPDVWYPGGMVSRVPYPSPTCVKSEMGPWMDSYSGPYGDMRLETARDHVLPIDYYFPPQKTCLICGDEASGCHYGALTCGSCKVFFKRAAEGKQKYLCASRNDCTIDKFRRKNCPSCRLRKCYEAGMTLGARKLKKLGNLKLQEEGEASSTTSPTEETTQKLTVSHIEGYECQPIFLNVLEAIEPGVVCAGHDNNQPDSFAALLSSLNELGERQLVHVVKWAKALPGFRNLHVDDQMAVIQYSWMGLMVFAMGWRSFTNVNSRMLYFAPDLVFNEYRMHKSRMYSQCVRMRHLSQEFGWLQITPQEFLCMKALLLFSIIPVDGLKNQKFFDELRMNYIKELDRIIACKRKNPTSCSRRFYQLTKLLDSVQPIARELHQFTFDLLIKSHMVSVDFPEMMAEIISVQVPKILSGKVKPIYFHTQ
# In short: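 Antagonist mode: AR-bla HEK293 cells co-treated with test compounds and agonist R1881 for 16 h at 37C, 5% CO2. Beta-lactamase activity read as FRET fluorescence after 2 h room-temperature substrate loading.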
# [7] = target: Androgen receptor (Homo sapiens) (UniProt P10275); assay: qHTS assay to identify small molecule agonists of the androgen receptor (AR) signaling pathway (AID 743036; active means well fitted activation curve with a large enough effect in the signal ratio in the repeat runs, with a control signal flat, not every such curve was filed as active; inconclusive means weak or mixed curves, or effect the other way; inactive means no such curve, though single readings can be large or run the other way; the % refers to the signal ratio; further: potency means the concentration at half of the fitted maximal effect); conditions: HEK293 AR-UAS-bla GripTite, beta-lactamase FRET ratio, 16 h; activation: at 62.4 µM (top of the series) unless noted
# In short: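 AR-UAS-bla HEK293 cells, plated 4 h before dosing, were treated with compound for 16 h at 37C. beta-Lactamase reporter read after 2 h with LiveBLAzer B/G FRET substrate at room temperature.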
# [8] = qHTS assay to identify small molecule antagonists of the androgen receptor (AR) signaling pathway using the MDA cell line - cell viability counter screen (AID 743041; further: nearly all actives have a fitted effect of over 45% in size; further: potency means the concentration at half of the fitted maximal effect; on viability change, negative = cytotoxic: on the % scale 0 is the no-effect control and ±100 the full control effect); conditions: MDA-kb2 viability, CellTiter-Fluor, 16 h, cells co-treated with R1881 androgen agonist; viability change, negative = cytotoxic: at 70.3 µM (top of the series)
# In short: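 Using the breast carcinoma line MDA-kb2 AR-luc, test chemicals were co-incubated with R1881 for 16 h; CellTiter-Fluor reagent, added at 15.5 h, provided a fluorescence measure of live cells.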
# [9] = target: Androgen receptor (Homo sapiens) (UniProt P10275); assay: qHTS assay to identify small molecule antagonists of the androgen receptor (AR) signaling pathway using the MDA cell line (AID 743042; further: potency means the concentration at half of the fitted maximal effect; nearly all actives have a fitted effect of over 55% in size)
# In short: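 Antagonist mode: compounds plus R1881 agonist added to MDA-kb2 AR-luc cells, incubated 16 h at 37C. Luciferase reporter luminescence quantified, with multiplexed CellTiter-Fluor readout for cell viability.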
# [10] = target: Estrogen receptor (Homo sapiens) (UniProt P03372); assay: qHTS assay to identify small molecule antagonists of the estrogen receptor alpha (ER-alpha) signaling pathway (AID 743069; active means well fitted curve in the direction sought with a large enough effect in the signal ratio in the repeat runs, not every such curve was filed as active; inconclusive means weak or mixed curves, or effect the other way; inactive means no such curve, though single readings can be large or run the other way; the % refers to the signal ratio; further: potency means the concentration at half of the fitted maximal effect); conditions: HEK293 ER-alpha-UAS-bla, beta-lactamase ratio, antagonist mode; activity, negative = inhibition: at 69.4 µM (top of the series) unless noted
# Chain of UniProt P03372 (P03372 whole entry, looked up): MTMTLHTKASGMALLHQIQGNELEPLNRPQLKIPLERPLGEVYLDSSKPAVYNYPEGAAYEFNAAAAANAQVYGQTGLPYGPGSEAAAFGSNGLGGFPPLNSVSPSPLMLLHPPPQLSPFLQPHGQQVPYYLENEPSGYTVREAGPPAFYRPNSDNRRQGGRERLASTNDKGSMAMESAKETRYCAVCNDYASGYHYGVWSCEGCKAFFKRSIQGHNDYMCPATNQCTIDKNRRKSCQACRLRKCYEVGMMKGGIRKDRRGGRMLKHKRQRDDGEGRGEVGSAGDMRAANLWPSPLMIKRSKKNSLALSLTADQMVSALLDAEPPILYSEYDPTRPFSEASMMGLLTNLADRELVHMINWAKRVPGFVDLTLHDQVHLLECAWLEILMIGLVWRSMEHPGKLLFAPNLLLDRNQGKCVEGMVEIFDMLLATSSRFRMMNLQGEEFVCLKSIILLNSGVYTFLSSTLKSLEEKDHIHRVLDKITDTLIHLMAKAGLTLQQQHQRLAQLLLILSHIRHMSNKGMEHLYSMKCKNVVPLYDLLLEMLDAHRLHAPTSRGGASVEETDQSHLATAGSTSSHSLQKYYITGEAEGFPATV
# In short: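 Fluorescence intensity from a beta-lactamase FRET substrate served as the read-out. Cells: HEK293 with stably integrated ER-alpha-UAS-bla reporter. Agonist 17beta-estradiol was co-added with compounds; incubation 18 hr at 37C, substrate 2 hr at room temperature.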
# [11] = qHTS assay to identify small molecule antagonists of the estrogen receptor alpha (ER-alpha) signaling pathway - cell viability counter screen (AID 743074; calls by dose curve; further: nearly all actives have a fitted effect of over 45% in size; further: potency means the concentration at half of the fitted maximal effect)
# [12] = target: Estrogen receptor (Homo sapiens) (UniProt P03372); assay: qHTS assay to identify small molecule agonists of the estrogen receptor alpha (ER-alpha) signaling pathway using the BG1 cell line (AID 743079); conditions: BG1Luc4E2 cells, ERE-luciferase agonist, 22 h; activation: at 70.3 µM (top of the series) unless noted; further: nearly all actives have a fitted effect of over 20% in size; further: potency means the concentration at half of the fitted maximal effect; on activation: on the % scale 0 is the no-effect control and ±100 the full control effect
# [13] = qHTS assay to identify small molecule antagonists of the estrogen receptor alpha (ER-alpha) signaling pathway using the BG1 cell line (AID 743080; calls by dose curve;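 further: BG1 cells stimulated with 17beta-estradiol alongside compound; potency means the concentration at half of the fitted maximal effect; nearly all actives have a fitted effect of over 25% in size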); conditions: BG1Luc4E2 ERE-luciferase antagonist mode, luminescence; activity change, negative = inhibition: at 70.3 µM (top of the series) unless noted
# In short: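 Luciferase inhibition measured with ONE-Glo after 30 min at RT in BG1Luc4E2 cells given test compounds and 17beta-estradiol for 21.5 h at 37 C; CellTiter-Fluor viability read in the same wells beforehand.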
# [14] = qHTS assay to identify aromatase inhibitors - cell viability counter screen (AID 743084); conditions: MCF-7 aro ERE viability, CellTiter-Fluor, 24 h; activity change, negative = cytotoxicity: at 70.3 µM (top of the series);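 further: cells stimulated with testosterone during compound exposure; on the % scale 0 is the no-effect control and ±100 the full control effect; nearly all actives have a fitted effect of over 55% in size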
# [15] = target: Peroxisome proliferator-activated receptor gamma (Homo sapiens) (UniProt P37231); assay: qHTS assay to identify small molecule agonists of the peroxisome proliferator-activated receptor gamma (PPARg) signaling pathway (AID 743094; active means well fitted activation curve with a large enough effect in the signal ratio in the repeat runs, not every such curve was filed as active; inconclusive means weak or mixed curves, or effect the other way; inactive means no such curve, though single readings can be large or run the other way; the % refers to the signal ratio; further: potency means the concentration at half of the fitted maximal effect; on activation: on the % scale 0 is the no-effect control and ±100 the full control effect); conditions: HEK293H PPARg-UAS-bla, beta-lactamase FRET ratio, 17 h; activation: at 57 µM (top of the series) unless noted
# Chain of UniProt P37231 (P37231 whole entry, looked up): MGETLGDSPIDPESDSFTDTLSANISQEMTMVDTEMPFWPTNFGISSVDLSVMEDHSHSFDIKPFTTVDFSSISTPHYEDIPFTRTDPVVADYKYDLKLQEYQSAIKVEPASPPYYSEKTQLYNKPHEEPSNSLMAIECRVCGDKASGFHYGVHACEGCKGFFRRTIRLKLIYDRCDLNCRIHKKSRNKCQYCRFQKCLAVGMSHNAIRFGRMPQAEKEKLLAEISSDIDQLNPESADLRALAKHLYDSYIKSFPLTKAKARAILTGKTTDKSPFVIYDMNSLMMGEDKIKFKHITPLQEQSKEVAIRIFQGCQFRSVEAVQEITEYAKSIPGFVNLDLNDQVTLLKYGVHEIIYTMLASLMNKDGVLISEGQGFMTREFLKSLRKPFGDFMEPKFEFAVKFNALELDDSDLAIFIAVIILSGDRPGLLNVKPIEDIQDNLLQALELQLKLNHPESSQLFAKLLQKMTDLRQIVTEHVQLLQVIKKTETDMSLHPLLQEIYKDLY
# In short: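 Agonist activity was taken from a beta-lactamase reporter (FRET substrate, 1 h at room temperature) in HEK293H cells carrying a PPARg UAS-bla construct. Compounds in DMSO were incubated 17 h at 37C after a 5 h cell pre-incubation.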
# [16] = qHTS assay for identifying genotoxic compounds that show differential cytotoxicity against isogenic chicken DT40 cell lines with known DNA damage response pathways - Rev3 mutant cell line (AID 743014); conditions: chicken DT40 Rev3-/- viability, CellTiter-Glo, 40 h; activity, negative = cytotoxicity: at 68.4 µM (top of the series); further: potency means the concentration at half of the fitted maximal effect; nearly all actives have a fitted effect of over 55% in size
# [17] = qHTS assay for small molecule agonists of the p53 signaling pathway - cell viability (AID 651633; calls by dose curve; further: on the % scale 0 is the no-effect control and ±100 the full control effect; nearly all actives have a fitted effect of over 30% in size)
# In short: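 Viability counter-read: CellTiter-Glo luminescence (30 min, room temperature) in the same p53RE-bla plates. These plates had been exposed to compounds for 16 h at 37 C.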
# [18] = qHTS assay to identify small molecule antagonists of the thyroid receptor (TR) signaling pathway (AID 743065)
# In short: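 Antagonism measured as loss of luciferase signal in GH3 cells stably carrying a TRE-luciferase reporter, co-treated with compound and T3 (1 nM final) for 23.5 h at 37 C. Viability was read in the same well by CellTiter-Fluor.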
# [19] = qHTS assay for small molecules that induce genotoxicity in human embryonic kidney cells expressing luciferase-tagged ATAD5 - cell viability (AID 651634; calls by dose curve; further: on the % scale 0 is the no-effect control and ±100 the full control effect; nearly all actives have a fitted effect of over 25% in size)
# In short: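 Cytotoxicity counter-readout: after 15.5 hr compound treatment at 37C, live-cell protease activity in ATAD5-luciferase HEK293T cells measured by CellTiter-Fluor fluorescence, 30 min development at 37C.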
# [20] = target: Estrogen receptor (Homo sapiens) (UniProt P03372); assay: qHTS assay to identify small molecule agonists of the estrogen receptor alpha (ER-alpha) signaling pathway (AID 743075; calls by dose curve; further: potency means the concentration at half of the fitted maximal effect); conditions: HEK293 ER-alpha-UAS-bla, beta-lactamase FRET ratio, 18 h; activation: at 70.1 µM (top of the series) unless noted
# [21] = qHTS assay to identify small molecule antagonists of the thyroid receptor (TR) signaling pathway - cell viability counter screen (AID 743064); conditions: GH3.TRE-Luc viability, CellTiter-Fluor, 24 h; activity change, negative = cytotoxic: at 70.3 µM (top of the series) unless noted; further: potency means the concentration at half of the fitted maximal effect; nearly all actives have a fitted effect of over 50% in size
# In short: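 GH3.TRE-Luc rat pituitary cells dosed after 4 hr plating, co-stimulated with T3 at 1 nM final, incubated 23.5 h at 37 C. Viability measured in the same wells by CellTiter-Fluor fluorescence after 30 min further at 37 C.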
# Tags describe the fitted curve by direction and shape or compound fluorescence and quenching.
smiles,measurement,setting,value
CC(=O)O[C@H]1C[C@H](O[C@H]2[C@@H](O)C[C@H](O[C@H]3[C@@H](O)C[C@H](OC4CC[C@@]5(C)[C@H](CC[C@@H]6[C@@H]5CC[C@]5(C)[C@@H](C7=CC(=O)OC7)CC[C@]65O)C4)O[C@@H]3C)O[C@@H]2C)O[C@H](C)[C@H]1O[C@@H]1O[C@H](CO)[C@@H](O)[C@H](O)[C@H]1O (stereo partly drawn),Potency,[1],"inconclusive: 42.2 nM [activator, partial curve]"
same,Potency,[2],active: 393 nM
same,"activity change, negative = inhibition",[3],inconclusive: -84.4%
same,Potency,[4],active: 756 nM
same,Potency,[5],active: 596 nM
same,Potency,[6],"inconclusive: 535 nM [rising, full curve, poor fit]"
same,Potency,[7],"inconclusive: 95.2 nM [activator, full curve]"
same,Potency,[8],"inconclusive: 150 nM [cytotoxic, partial curve, poor fit]"
same,Potency,[9],active: 1680 nM
same,Potency,[10],"inconclusive: 134 nM [fluorescent, full curve, poor fit]"
same,Potency,[11],active: 67.4 nM
same,Potency,[12],"inconclusive: 473 nM [inhibitor, full curve]"
same,Potency,[13],"inconclusive: 1880 nM [falling, full curve]"
same,Potency,[14],inactive
same,Potency,[15],"inconclusive: 601 nM [fluorescent, full curve]"
C[N+]1(C)[C@@H]2CC[C@H]1CC(OC(=O)c1c[nH]c3ccccc13)C2 (stereo partly drawn),Potency,[1],"inconclusive: 298 nM [activator, single point]"
same,"activity change, negative = inhibition",[3],inconclusive: 10%
same,Potency,[16],"inconclusive: 23700 nM [rising, partial curve, poor fit]"
same,Potency,[8],inactive
same,Potency,[12],inactive
same,Potency,[15],inactive
Cc1ccccc1C,Potency,[1],inactive
same,Potency,[3],inactive
CC(C)=CCN1CC[C@]2(C)c3cc(O)ccc3C[C@H]1[C@H]2C,Potency,[17],inactive
same,Potency,[16],active: 27300 nM
same,Potency,[18],"inconclusive: 43200 nM [inhibitor, partial curve]"
same,Potency,[11],inactive
same,Potency,[12],active: 30600 nM
C[C@]12CC[C@H]3[C@@H](CCC4=C(O)C(=O)CC[C@@H]43)[C@@H]1CC[C@@H]2OC(=O)CCC1CCCC1,Potency,[19],inactive
same,Potency,[3],"inconclusive: 33.8 nM [activator, full curve, poor fit]"
same,Potency,[5],inactive
same,Potency,[10],"inconclusive: 4250 nM [falling, partial curve, poor fit]"
same,Potency,[20],active: 952 nM [inconclusive]
same,Potency,[14],inactive
CN1c2ccccc2C(NCCCCCCC(=O)O)c2ccc(Cl)cc2S1(=O)=O (stereo not drawn),activation,[1],inconclusive: 2.8%
same,"ratio activity, negative = MMP loss",[2],inconclusive: 23%
same,"activity change, negative = inhibition",[3],inconclusive: 2.26%
same,Potency,[21],"inconclusive: 23700 nM [cytotoxic, partial curve]"
